Measured values: the supplement of paper PMC4466236
The full ranking holds about 33,000 sequences; the median of “E-score (dimensionless, -0.5 to 0.5)” is about -0.058, and the highest 2% start at about 0.35. Some of the results follow.

Tested on: MvaT
Test: PBM 8-mer E-score (mean of HK and ME arrays) (E-score (dimensionless, -0.5 to 0.5)); higher = stronger relative binding preference; most listed sequences are background and not binding sites
Method in brief: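 Full-length P. aeruginosa MvaT carrying an N-terminal glutathione S-transferase tag was tested by protein binding microarray following a previously described protocol. Two universal double-stranded 60-mer arrays, ME and HK, were used, each with a constant 25-mer primer region and a variable 35-mer region covering all 8-mers. The rank-based E-score is the mean of the two arrays, parsed with a custom script. Its range runs from -0.5 to 0.5 for each 8-mer.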

Sequence | PBM 8-mer E-score
ATTAGTTC | 0.297
ACCTTTCC | -0.0591
CCCACTCG | -0.0719
CGAGGGGC | -0.302
CAAGGAAA | -0.0687
ATCGGACG | -0.232
GGTGAAGA | -0.00334
ACTAGCGG | 0.021
ATGCTCCC | -0.108
GTTTTCCA | 0.00845
TAGAGTCA | 0.01
AAAAGACT | 0.105
AATGTCAT | 0.251
GACGAGAC | -0.168
CGCTCTAA | 0.0519
TATGTTAA | 0.344
GGCCCTGA | -0.181
CGCGACTA | -0.056
GTGACGGA | -0.125
CAGCCGGG | -0.258
ATACAGCA | 0.172
TACTTGGA | 0.157
TCCTTCCA | -0.27
CATTATTC | 0.363
ATCCTGCG | -0.142

Sequence | PBM 8-mer E-score
ACACAAGG | -0.0964
ATAGGTCG | -0.0503
GGGAAGAA | -0.11
ATGCCCAT | -0.116
ACTGCACA | 0.039
CATCGTCG | -0.131
AGTCGCCA | -0.174
CTCTTAAG | 0.0344
ATCCCCGG | -0.27
CTTTGAGC | -0.102
CGAAGACC | -0.222
ACTGCACT | 0.0411
CGCAAAAC | 0.0266
ACGCCTTC | -0.283
AGACCTCT | -0.233
ATAGGTAA | 0.173
CTTGAGAC | 0.0307
CATGACCG | -0.191
CACGAATG | -0.0221
AGTTAATA | 0.406
AGACAGCT | -0.0875
AGGGTGAT | -0.16
CGAATCGC | -0.202
CTCACCGC | -0.185
GCACCCGC | -0.299

Sequence | PBM 8-mer E-score
TAAAGACA | 0.132
CCACCAAC | 0.00191
CGCCTCTC | -0.305
GAATGCTC | -0.187
ATGACAAT | 0.125
CTCATAAC | -0.0784
TCGCTACA | -0.152
ATGAATGC | 0.0337
ACCGGCGT | -0.213
CCCAGTCG | -0.131
ATGCTACG | -0.157
AAACGTAC | 0.0424
TCTCGTAA | -0.0867
GTATTCAC | 0.184
CCGTGCTA | -0.141
ACTCAGCC | -0.165
AATTTCTG | 0.0666
GAGCATAA | 0.0834
AAATTTAA | 0.408
ATACGTAG | 0.107
GTTCTGCA | 0.0116
CAAGCGCA | -0.135
CTTCTGAC | -0.0267
CCATAGGC | -0.209
ACGAGCTG | -0.237

Sequence | PBM 8-mer E-score
TGCTCCAA | -0.104
ACATGAAC | 0.123
ATCACAGG | -0.124
CGGTTATC | 0.0552
GGTAGATA | 0.0674
ATAAACAG | 0.257
CAATCACG | -0.281
TGTAAGAA | 0.162
TAACTAGA | 0.221
AATAATGG | 0.372
AGAGACCA | -0.0266
AACGACTA | -0.00306
TCCGGCAA | -0.241
CGAGGTAA | -0.0716
CTTAGGTA | -0.0414
AACCCGCT | -0.0928
ACTGAATA | 0.235
AAATACTT | 0.246
GGCGTAAC | -0.0695
ATGATACA | 0.16
ACATACGC | -0.163
AGTAGCAT | 0.0761
AAACTTGA | 0.179
ACGCACTC | -0.0389
AGTTGCAA | 0.176

Sequence | PBM 8-mer E-score
AAGACTCA | -0.0174
ACTTTTCT | 0.167
ATGCTGCA | 0.0391
GCCCCCCA | -0.333
GATTGGCC | -0.163
AAACAGTT | 0.249
ACTGCCGA | -0.128
CACACAAC | 0.028
GCTACAGC | -0.215
GATACAGC | -0.0898
CTGATTGC | 0.106
GTCAGATA | 0.0678
ACGCTCAC | -0.242
AAATCGGG | -0.0104
ATATCTAA | 0.336
CTCGGAGA | -0.0569
TCTTAAGA | 0.253
GCCCAACC | -0.141
CAGACACG | -0.158
ATATTGTC | 0.346
CTCCAATC | -0.107
AAGAGCCT | -0.147
ATGCTAAG | 0.0822
AACGTGTG | -0.0783
AAGTGCCC | -0.067

Sequence | PBM 8-mer E-score
CTATGGGA | -0.222
GACGATCC | -0.123
ACGCGGCG | -0.275
ACCTTTCA | 0.0599
TGACGTCA | -0.126
AAACCATG | 0.0813
GTCCTAGA | -0.238
GAACACGC | -0.00574
CTGCTGAC | -0.0566
CTAATCTA | 0.205
AGAACAGC | -0.0238
ATCATAGC | 0.0365
GAACTACC | 0.000847
GTATTTAA | 0.368
ATTTTCCC | 0.0468
CGACTAAG | -0.13
GGCACACC | -0.129
TCTGCAGA | 0.0322
TCTACGAA | -0.149
CCATACTA | 0.12
CTCGTACC | -0.155
ATTTGATA | 0.2
AGCATACT | 0.0488
AGATCTAG | -0.0426
ACAACCTG | -0.038

Sequence | PBM 8-mer E-score
ATAGATAT | 0.288
ATACACCA | 0.193
AGTGGGAG | -0.192
AGTGTCGC | -0.0462
GCCTCGAC | -0.24
ACGTAAGG | -0.0828
AGCAAGAG | -0.0917
GCATATGC | 0.167
ACGCCGGC | -0.137
ACTGAACA | 0.131
GAGGATAA | 0.181
TACACATA | 0.242
AGGTAGCG | -0.144
AGGGCTGA | -0.191
CTGCTTTC | -0.198
ATGGACAC | -0.056
AAGTAAAT | 0.312
CGGTAGCA | -0.0486
ACGCGGCA | -0.108
AGGGCCGA | -0.21
AAGCATGC | -0.142
AGCTGTGC | -0.156
GAAAAGAA | 0.21
CAGGATGC | -0.251
ACGATCAC | -0.0745

Sequence | PBM 8-mer E-score
ATGCTGGC | -0.154
CGAAATTC | 0.192
AAGTACCT | 0.051
ACGCCGCG | -0.195
TACGCGGA | -0.0302
AATAGCCC | 0.0938
ATTGGTTA | 0.282
CGGAAATA | 0.19
AACTGCTT | 0.161
CCCGAACA | -0.0758
GGTTGCAA | 0.00272
AGAATGTA | 0.192
GCCCAGCC | -0.24
AAAACGGT | -0.00471
ATTTTGAC | 0.219
CTACCGAC | -0.233
CTGAAACC | -0.139
AAACAAAT | 0.285
GCAAAACC | -0.0546
CAATTACG | 0.257
AATCACAG | 0.00714
ACTGATCC | -0.154
AACCACCC | -0.085
GACTATAA | 0.316
CAGAACGG | -0.135

Sequence | PBM 8-mer E-score
ACACGTAT | 0.162
CCCTAGAA | -0.00384
CGTCCCGA | -0.155
GTTTGACA | 0.112
CCCGCCGC | -0.27
TGAAAGAA | 0.212
CTGCAGTA | 0.129
TCTAAAAA | 0.156
ACCTTTTC | -0.112
CATCACCA | -0.0625
AAGGGGAG | -0.21
CGGGTAGA | -0.0777
ATTTGCGA | 0.0986
CCTCCACG | -0.204
CCCCGTGC | -0.256
CCTTTATA | 0.193
ACATAACG | 0.183
ACCACTCC | -0.067
AGAAGATG | 0.024
ACAGGTAT | 0.142
AGCCTTTA | -0.0555
GTGCGAAC | 0.00328
ATCGCGGA | 0.00065
CTACAGTC | -0.0562
TACGACAA | 0.131

Sequence | PBM 8-mer E-score
CGCGTACC | -0.13
AAAAGAAT | 0.323
GACGCGAA | 0.00258
AGATCCGG | -0.188
CCATGTTC | -0.0831
ACGATAGA | -0.0798
ACGCACGT | -0.269
ATTCGGTC | -0.0193
GAGACAGA | -0.0481
CCACTACG | -0.155
GGTGGGCA | -0.0266
AAACGTCA | 0.0875
ACGGACGC | -0.252
ACCGCGCA | -0.202
GTTGGCCA | -0.0756
GAACGAGA | -0.0492
CAACGCGA | -0.169
AGTATCAA | 0.141
CCGCTTCG | -0.265
CGGTTGGA | -0.0551
AACAAGCA | 0.0201
CCGGCGCG | -0.265
TATGTAAA | 0.294
ATCATCAG | -0.0879
TTTACAAA | 0.264

Sequence | PBM 8-mer E-score
ATTGAAAT | 0.27
AGATGGTG | -0.0311
ATTGCAGG | -0.129
GGAGAATA | 0.086
ACCTCATG | -0.241
GCCGCAGC | -0.272
GTGTCCAA | -0.104
GTAATTAC | 0.393
ACCGTAGC | -0.238
CAGAAGCG | -0.247
CGTGCGGC | -0.234
GTTTTAAA | 0.282
GCGGGTGA | -0.266
GATATTTA | 0.326
CGTCAACC | -0.119
TAGTTGCA | 0.24
ACGCTGGA | -0.245
CTGTTATC | 0.0487
CAGGGAGG | -0.344
CCACGACA | 0.011
CTGTGCTC | -0.127
GAACTCAA | -0.0711
GCACTAAC | -0.0964
GAAAGGGA | -0.197
AGCGGCTG | -0.179

Sequence | PBM 8-mer E-score
CACAGTCC | -0.0765
AATTTTGT | 0.234
AGCACGAC | -0.255
AATTCAGC | 0.134
ATCCTGGC | -0.173
TAAATACA | 0.35
TCGTGAAA | 0.0158
GGACCCGA | -0.186
GTGACAAA | 0.0215
AACCTTAG | -0.0485
AACTCTCG | 0.00532
TGTGCTAA | 0.0541
GGACTTTA | -0.06
AACGTGCT | -0.0388
AAATAATA | 0.428
GCACCCGA | -0.27
AGACTTAT | 0.182
CCCCGCCA | -0.258
AGTATGCG | 0.127
CAGTTATG | 0.189
AGGCGTCG | -0.268
AGCAGGGG | -0.215
ATGGTGCC | -0.273
ACCAACGG | -0.174
AGCGGTTG | -0.102

Sequence | PBM 8-mer E-score
CGGCAGAC | -0.106
GCCCTACC | -0.183
CCGCCGTC | -0.117
ATGGAGCA | -0.104
GTTCAAGA | -0.0406
GCCTACCC | -0.193
ATCGGAAA | 0.128
GCGGCATA | 0.0392
AACTCCTC | -0.0536
CAGGCGAG | -0.141
AGGACATC | -0.259
TACTTACA | 0.308
TAATGAAA | 0.258
ATGGTGGG | -0.21
CGCGCAGA | -0.141
ACTGAGCG | -0.119
GGCGTGAA | -0.0221
CAGCGGCA | -0.321
GCGTATCA | -0.013
AAGTCCAC | -0.128
AATCGGAC | -0.186
CCACTGTA | 0.0305
GAATTGAA | 0.137
CTAGCCTC | -0.265
ACCAGTGA | -0.108

Sequence | PBM 8-mer E-score
CGACTTGA | -0.119
GGCTACAA | 0.0664
ACGAATGA | 0.127
TGACAGCA | -0.0447
ACGACGTG | -0.128
CACACTAG | 0.199
CACACCCC | -0.367
ACATACGT | 0.0286
CTATTTCC | 0.135
CAGACTGA | -0.0264
CGCCTGAA | -0.22
GAATTTAC | 0.204
ACAATGAC | -0.0272
ATAGGTCA | -0.0355
AGGGGGTG | -0.316
ACGGGAAA | 0.102
GACAAGGC | -0.243
ACAGGCTG | -0.178
GCTCGAGC | -0.0527
